# Results: the supplement of paper PMC12632987
# In all, about 1,800 sequences were measured (“median log2 fold change of GCK-ALFA target abundance (FLAG IP / Myc IP barcode read proportion)”: median about 0.14, lowest 2% from about -0.84 on). Some of the results follow.
# B1: traf2_out_13_95_1046 (protein)
# chain: SAETAERIMEVADEAEERALALLEEARARVADDPEASAVLDEALDLAEKRGLSEALHLLREARAADPAHAELFDALIAELEAIRREAGRRVAEILKEEEE
# B2: traf2_out_20_38_2042 (protein)
# chain: EEEEKEEEQIELDVEIANEALDEVEERFAKWRAEGLSLEEIAERVKEEIRKAFKEAGLEEKLPEYLEQIDLVRDSPDAERLLERILARALALVRRKKREK
# B3: traf2_out_18_117_1804 (protein)
# chain: SEIEEAKREFEEALKRFEEVRREAQRVLGQLIEKHPHALPQEVTDAAVEFGEAKRRAEELKLEAEENSEDLEKLKELVEEMKRLTEEMERILRRLRELLE
# B4: traf2_out_18_167_1857 (protein)
# chain: SEELQKEYDKVSDELVKLSEVKRAAQEALRLLAEDPEAFPAALARLIALLDENGELKEDAEALRAATPEALAATLEAVAERAQKLANEKYKKLEELRKEL
# B5: traf2_out_17_162_1563 (protein)
# chain: SPIEEEWEELKRELERLRKEVERLEKELENLENMSKEEITDKLVEASRVKREALLLAERARKLKPLIGEEEAQKLIEEAERIAERAQRIANKLYKALEEK
# B6: traf2_out_16_177_1453 (protein)
# chain: ELDRLMDRLVILSELRRAALLAVEGRGDEYREHLARARELAEEAGDEEALALADRIEALIAENTPEAKEELKKLAEELQKEAQKLALEAEKLIKERAKEE
# B7: traf2_out_20_38_2002 (protein)
# chain: SMEEEEEERLKEIIDVANEAYDEATERIEALRAAGKSVEEIAAIVRAEVAELLDAAGLEEERDELLADIDRALSSPDALRLFARILARARALVKQKELNE
# B8: traf2_out_14_149_1256 (protein)
# chain: SATEEKKKALEEAAEIFKEIAEMLKKAIEEGSTDLDKEKLKELLKKAREILSKQGFVVSHLLAFEDLLEKTKEFTKEKLEELLKLAKAAIESLEVLREML
# B9: traf2_out_16_104_1425 (protein)
# chain: AAAAAAAFDAAIARLNAIADEANRIANRAMKLYEKASEEKKTALSDLLVEASELRREALAAAQAAEAARAAGGDLAAVKAALAALEARLAELKARLKELE
# B10: traf2_out_20_3_2070 (protein)
# chain: SELEAQLEKELEAAEALLKEAAALADPETAARLEALIARLKASRELSYDDRLVAVSEVRREVRELAEEARAAGDEELAALLEAAADELNRAAQLLYDILQ
# B11: traf2_out_20_3_2202 (protein)
# chain: EELEKKLEEELEKAEELLKKAKELADPETAKKLDELIKRLKESRELSYEDRLVELSEIRREVLLLAQQAKAEGNEELAKVLEEAAEAINRAKNLVYKIIE
# B12: traf2_out_18_167_1859 (protein)
# chain: MEELEKKLEEATDELVELSDIRRALLLILQALEESREKALELAEEELKRHPDSEILKETLEVLKTKSDEETRAFLEEKIEELQKKMNEKYKEVEKLRKEL
# B13: traf2_out_17_162_1537 (protein)
# chain: SETEEELKKLKEELKEIEKEKKELEEKSKKLSELSKEEISDLLVEVSELKRKARELAEKLKKLAEKTGSEEAKKLAKEAEEIAEELQKIANKIYKELEKK
# B14: traf2_out_17_178_1664 (protein)
# chain: SKEEERKKISELTDKLIDLAEKAADEALALLEAEGDATEEELALLREARRRGSANDVKALITRWIPKSKNAAALQALLDEFTKKYRELSKGIAEAYKKYE
# B15: traf2_out_9_17_2606 (protein)
# chain: SAAEEAARQAILDAAREVLAELVEEGYITEEEAEEILAKVRERLAAGKSPEEVVASFIGDIASTLLTKSDLPLSEINRIVGRAYRALRARLAAAAKAAAA
# B16: traf2_out_8_174_2564 (protein)
# chain: AELENLKTAANLGLEYAEKIEEIKEKVKELEKESLEKALKYAEEKIEELLKELDAKSEEAKKTEDPELATLINREINSMKQRAENMLEALKIRAEAKKKA
# B17: traf2_out_18_167_1839 (protein)
# chain: EEELEKKRQELSDRLVDLSAVRRAARRALHALETAPALVPAELARLEEEAERVPELQPLVAAARAALEAGDREGLRAELERLIEEAQRLMNEVMDELEAL
# B18: traf2_out_17_162_1593 (protein)
# chain: GSLEEELKRIEERLEELEKKLKELEEKLKNIEKLSKEELTDLLVEASEAKREALELLEEVESLKSKLDPETYEELSRRAEELAEKFQRIANAFYDELLKK
# B19: traf2_out_9_108_2596 (protein)
# chain: MTEEEKLEEIFKKVLELAEEFLKDPRLTPEQKEQLQQAIENAKKLYEKGLKRTAIITLAIDMARIAYDVGEEAVRELLERLEEIDPRAASAARRMVELLK
# B20: traf2_out_20_3_2060 (protein)
# chain: SELEKEIEKLEKELEKKLKELEKLLPPERAAELKKAWEKVKKAKEEGLDEYLIAVSELRRLLLELSEEAREEGDEETAKLLEEAAELAQRIAHLIYKKIE
# B21: traf2_out_14_154_1271 (protein)
# chain: DELYDELTYHSRMSRAYEAVVERLETEGPEAAAAQAEAAAAELKKLVPEKAAEIDAARDRILAALAGSPEEQAALAAELRELSERYSKKARELYKEIEKK
# B22: traf2_out_11_169_850 (protein)
# chain: EEKEKNRKIIDKALELEDEAKEKLKEHALALAKEAGLDVAEVEAIFEANKGKSLSAVAAALVRWFREQGKEEAAEKVLAKYEELKEEINKKMTEFIKELE
# B23: traf2_out_14_149_1265 (protein)
# chain: SKVKEVAERVLKLLKEVVEKAKEAIKTGTEEAREELFELIKEAAEEIEKLGKEIGVYFSSVAELKHLASQRDLPLEELLKRLEEILERSEVTAEFLIKEA
# B24: traf2_out_17_178_1686 (protein)
# chain: SKEEYRKEISEKTDELIDLTEATGAELLARARAEGRLSPEELAALEAARRRGSNRTFLALARRAVPRLASAAEAQALLDAFEAKARELEKKIAEAYKKYE
# B25: traf2_out_13_95_1043 (protein)
# chain: SAELAKKIMAISDQMLDEVLAALEEAAAAAADDPELVAVLREARRLAETRGISEAIHLLREAAAAHPEHAELLNALIERLEAIRRRAGREVAKLIKEEEE
# B26: traf2_out_20_3_2158 (protein)
# chain: SELEKKAEEALDEAIALLAEAAALADPATAARLEALRERVEASRELPPEDRLVVLSEVRREVLALAEAAAAAGRTDLAAVLAAAADALNRAMNLVYKLIE
# B27: traf2_out_17_178_1682 (protein)
# chain: TKEEHRKKISEYTDKLIDLTEATGAELLARARADGTISPEELAALEAARRRGSNRTFLALARRIVPKLADAAAAQALLDAFEAEARELEKKIAEEYEKYE
# B28: traf2_out_20_3_2219 (protein)
# chain: EELKEEIKKLLEEIRKLLKEAAPLLPAEDLAELTALLKEAEKALETDLTDALVYLSELRRRALALAQRAAAAGDAELAALLNEAAELANKAAGKVLKAIE
# B29: traf2_out_5_182_2314 (protein)
# chain: SAEEELRRELLERLRRVNRELARATARAMDAIEEAKARGDEEFVEEIRRLLNRAIAAVSKLEQMVLEGRIDPEEFERLLEEAERAIEELNRLIEEYEAEV
# Molecular target: T1, TRAF2, Q12933
# T1 chain: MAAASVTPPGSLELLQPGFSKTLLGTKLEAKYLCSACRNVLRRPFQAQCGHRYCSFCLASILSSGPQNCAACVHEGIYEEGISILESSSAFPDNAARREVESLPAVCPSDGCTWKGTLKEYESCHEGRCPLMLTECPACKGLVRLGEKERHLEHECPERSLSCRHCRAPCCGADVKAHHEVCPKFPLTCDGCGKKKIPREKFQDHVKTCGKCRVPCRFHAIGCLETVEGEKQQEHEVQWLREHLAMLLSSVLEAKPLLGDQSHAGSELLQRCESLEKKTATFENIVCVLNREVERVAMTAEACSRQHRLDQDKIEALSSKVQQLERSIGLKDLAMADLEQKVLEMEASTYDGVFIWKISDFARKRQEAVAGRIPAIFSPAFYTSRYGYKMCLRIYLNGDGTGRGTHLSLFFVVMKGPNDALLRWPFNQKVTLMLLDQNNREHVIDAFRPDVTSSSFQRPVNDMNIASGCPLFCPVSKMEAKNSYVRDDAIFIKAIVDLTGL
# Assay: median log2 fold change of GCK-ALFA target abundance (FLAG IP / Myc IP barcode read proportion) (log2 ratio); each designed protein is fused to an ALFA-tag nanobody in HEK293 cells to bring the named protein to FLAG-tagged glucokinase (GCK); Myc marks an untargeted standard; higher = target protein stabilised (more abundant)
# Details: target protein: 3xFLAG-MCP-GCK-ALFA reporter; HEK293 landing pad (RPLP)
# Outline: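 An ALFA-nanobody-fused binder library was recombined into HEK293 landing-pad cells and induced with 2 μg mL^−1 doxycycline. Cells were transfected with a plasmid expressing a FLAG-tagged target and a Myc-tagged standard. After 48 h, lysates underwent anti-FLAG and anti-Myc immunoprecipitation, and circular RNA barcodes were reverse transcribed, amplified and sequenced. Target abundance is the per-binder median log2 ratio of FLAG to Myc barcode read proportions. Barcodes needed ≥10^−7 proportion in both replicates, binders ≥3 barcodes per replicate, and a 10^−6 pseudocount was added; the two replicates were pooled.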
row,Binder,median log2 fold change
1,B1,0.0598
2,B2,-0.0369
3,B3,0.222
4,B4,0.218
5,B5,0.0431
6,B6,-0.267
7,B7,-1.43
8,B8,0.297
9,B9,0.118
10,B10,0.184
11,B11,-0.0195
12,B12,0.344
13,B13,0.962
14,B14,0.178
15,B15,-0.00895
16,B16,0.432
17,B17,0.184
18,B18,-0.0834
19,B19,-0.138
20,B20,0.136
21,B21,0.31
22,B22,-0.596
23,B23,0.297
24,B24,0.139
25,B25,-0.166
26,B26,-0.207
27,B27,0.193
28,B28,0.444
29,B29,0.104
